# Reference: PubChem BioAssay (NCI)
# Where “and” joins values, the source holds several entries; their conditions need not be identical. Equal entries are not always repeated.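 Step 1: Grow cells in 96-well plates. Step 2: Expose to compound for 48 hours at 5 concentrations. Step 3: Interpolate endpoints linearly; if unreached, use highest concentration. GI50 marks 50% less growth. The concentration for full growth arrest is given as TGI.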 Square brackets hold non-standard residues; d marks the D form. Peptide text beside a SMILES is read from it. * marks the point of attachment. Tyr(3-Br) = N[C@@H](Cc1ccc(O)c(Br)c1)C(=O)O; Boc = CC(C)(C)OC(=O)*
# Test system: NCI-H322M lung
# Assay: NCI anticancer screen, dose series, 48 h
SMILES,GI50,TGI
COc1cc(/C=C/c2cc(/C=C/c3ccc(O)c(OC)c3)nc(N)n2)ccc1O,2.22 µM,5.39 µM
CN(C)Cc1cc(C(C)(C)C)ccc1-c1ccc(C(C)(C)C)cc1CN(C)C,–,> 100 µM
CN(/N=C/c1cccc2cccnc12)c1ccc([N+](=O)[O-])cc1,–,> 100 µM
COc1cc2c3c(n(CCCNCCCNCCCNCCCN)c(=O)c2cc1OC)-c1cc2c(cc1C3=O)OCO2,2.73 µM,6.79 µM
CCOC(=O)c1sc(N/N=C2\NC(=O)/C(=C/c3ccc([N+](=O)[O-])cc3)S2)nc1C,–,> 100 µM
O=c1[nH]c2cc([N+](=O)[O-])ccc2nc1/C(=N/Nc1ccccc1)C(O)c1ccc(C(O)/C(=N\Nc2ccccc2)c2cnc3cc([N+](=O)[O-])ccc3n2)cc1 (stereo not given),–,> 100 µM
CN(CCO)c1nc(N)cc(=O)[nH]1,–,> 100 µM
CS(=O)(=O)Nc1cccc(-c2cc(-c3ccccc3Cl)c(C#N)c(N)n2)c1,6.38 µM,24.4 µM
CCN(CC)C(=S)SS(=O)(=O)c1ccc(Cl)cc1,–,> 100 µM
CC(=O)[O-].[Mn+3].[O-]c1ccccc1C=NCCN=Cc1ccccc1[O-],60 µM,> 100 µM
CCN(CC)CCCC(C)Nc1nc(C)cc(Nc2ccc3nc(C)cc(N)c3c2)n1 (stereo not given),16.5 µM,92.8 µM
Nc1ncnc2c1c(-c1cccc(OCc3ccccc3)c1)cn2C1CC(CN2CCC2)C1 (stereo not given),2.26 µM and 6.29 µM,16.1 µM and > 10 µM
N#CC(=C1CCCCC1)c1nc2ccccc2o1,–,> 100 µM
CCOC(=O)c1nc2ccccc2nc1Nc1ccc(OC)c(OC)c1,–,> 100 µM
CCCCCCCCCCCCCCCC[N+](C)(CCO)Cc1cnc[nH]1 (stereo not given),3.18 µM,33.2 µM
O=C(Nc1ccccc1O)c1ccc(CNc2ccnc(C(F)(F)F)c2)cc1,3.78 µM,> 100 µM
Cc1cc(Nc2c3ccccc3nc3ccccc23)ccc1NS(C)(=O)=O,4.34 µM,15.7 µM
C=C1C(=O)OC2/C=C(/C)C3CC(O)C(C)(CC(OC(=O)/C(C)=C/C)C12)O3 (stereo not given),–,26 µM
O=S(=O)(SCc1ccccc1)C(c1ccccc1)c1ccccc1,–,> 100 µM
COC(=O)[C@H](Cc1ccc(O)c(Br)c1)NC(=O)[C@H](Cc1ccc(O)cc1)NC(=O)OC(C)(C)C (Boc-Tyr-[Tyr(3-Br)]-OMe),–,> 100 µM
CCCCCCCCCc1cc[n+](CC(=O)c2ccc([N+](=O)[O-])cc2)cc1,1.95 µM,3.52 µM
C/C1=C/C(C)CC(C)OC(=O)C(C)NC(=O)C(Cc2ccc(O)c(I)c2)N(C)C(=O)C(C)NC(=O)C(C)C1 (stereo not given),–,> 100 µM
O=c1c(O)cccc2cc(O)c(O)c(O)c12,6.52 µM,> 100 µM
COC1C(O)C(C)OC(OC2C(Oc3cccc4c(O)c5c(=O)oc6ccc(C)c7c(=O)oc(c34)c5c67)OC(C)C(O)C2O)C1O (stereo not given),3.72 µM,25.6 µM and 16.1 µM

SMILES,GI50,TGI
COC(=O)C1c2c(c3ccccc3n2C(=O)OC)CCN2CCC1C(S(=O)(=O)c1ccccc1)C2=O (stereo not given),–,> 100 µM
CN(CC#N)C1CCCC[C@H]1O (stereo not given in full),–,> 100 µM
COc1cc(C(=O)O[C@@H]2[C@@H](OC(=O)c3cc(OC)c(OC)c(OC)c3)[C@@H](OC)O[C@@H]3CO[C@@H](c4ccccc4)O[C@@H]23)cc(OC)c1OC,–,> 100 µM
CCN(CC)CCCn1c(=O)c2ccccc2n2c3c(=O)n(C)c(=O)n(C)c3nc12,–,21.9 µM
CCN(CC)c1ccc2c(c1)Oc1nc(N)c(C#N)c(N)c1C2Sc1ccc(OC)cc1 (stereo not given),1.65 µM,3.03 µM
CC(=O)Oc1ccc2c(c1)oc1c3ccc(OC(C)=O)cc3n(C)c(=O)c21,–,> 100 µM
Cc1nc(-c2ccccc2)cc2c1c(=O)oc1ccccc12,–,> 100 µM
CCN1C2=NCCN2S(=O)(=O)c2ccccc21,–,> 100 µM
CCOC(=O)Cc1csc2[n+]1C(=O)/C(=C\c1cccc(Cl)c1Cl)S2,–,> 100 µM
CC1(C)CC23CC(C)(C)c4cccc(c42)OCc2ccc4ccc5ccc(nc5c4n2)COc2cccc1c23,–,> 50 µM
O=C1C=CC2=[N+]([O-])C(c3ccccc3)(c3ccccc3)C(=Nc3ccccc3)C2=C1,–,19.8 µM
Cc1ccc2c(n1)C(=O)C=CC2=O,–,31 µM
Cc1cc(-c2nc3ccccc3s2)ccc1N,–,> 100 µM
Cc1cc(N=Nc2c(O)ccc3ccccc23)ccc1N=Nc1cccc([N+](C)(C)C)c1,–,75.7 µM
Cc1ccc(NC(=O)C(=O)CC(=O)C2CCOC2=O)c(C)c1 (stereo not given),–,> 100 µM
O=c1cc(-c2ccccc2)oc2cc(O)cc(O)c12,–,78.2 µM
CCNc1nnc(-c2nsc3ccccc23)s1,–,64.3 µM
Fc1ccc(-c2ncn(C3CCNCC3)c2-c2ccnc(Oc3ccc(F)c(F)c3)n2)cc1,24.7 µM,> 25 µM
CC(C)(C)NC(=O)NC12CC3CC(CC(F)(C3)C1)C2,–,> 100 µM
O=Cc1ccc(-c2ccc(-c3nc4ccccc4o3)cc2)s1,17.7 µM,58.2 µM
N#CSc1c[nH]c2ccc(/C=C/C(=O)/C=C(/C=C/c3ccc4[nH]cc(SC#N)c4c3)OB(F)F)cc12,18.6 µM,> 100 µM
Brc1c(C#CCC(c2ccccc2)(c2ccccc2)c2ccccc2)ccc(C#CCC(c2ccccc2)(c2ccccc2)c2ccccc2)c1Br,–,> 100 µM
CC(=O)NNc1nc(C)c(C(/C=C/c2ccc([N+](=O)[O-])cc2)=N/NC(N)=S)s1,–,> 100 µM
CN1CCCCC(C#N)(c2ccccc2)CC1 (stereo not given),–,> 100 µM

SMILES,GI50,TGI
C[C@]12Cc3cnn(-c4ccc(F)cc4)c3NC1CC[C@@H]1C2CC[C@@]2(C)C1CC[C@@H]2O (stereo not given in full),–,29.5 µM
CCN(CC)CCN1C(=O)c2c(c(-c3ccccc3)c3ccccc3c2-c2ccccc2)C1=O,–,> 100 µM
COc1ccc(-c2nc(C(=O)c3ccccc3)n(CC(=O)c3ccccc3)c2-c2ccc(OC)cc2)cc1,> 100 µM,> 100 µM
C/C=C\C(CC(=O)NCCC1CN(S(=O)(=O)C(F)(F)F)c2ccccc21)CC(=O)OC (stereo not given),–,> 100 µM
COc1ccc(NC(=O)CC/C(CC(=O)C(C)(C)C)=N\NC(=O)C(N)=O)cc1,–,> 100 µM
Oc1ccccc1C=Nc1ccc(-c2nc3ccccc3[nH]2)cc1,–,> 100 µM
CC1(C)CC(=O)C2=C(C1)NC1=C(C(=O)CC(C)(C)C1)C2c1ccc([N+](=O)[O-])cc1,–,> 100 µM
CN1CCN(c2ccc(Nc3nc(N)c(C(=O)c4ccc5c(c4)OCCO5)s3)cc2)CC1,3.7 µM,> 17.1 µM
Cc1cc2cn3c4ccc(O)cc4[nH]c(=O)c3c2cc1C,0.0593 µM,1.83 µM
N=C(N)c1ccc(-c2ccc(-c3ccccc3)s2)cc1,1.4 µM,2.72 µM
c1ccc(C2=NOC3(c4ccccc4)SC4CCCCC4CN23)cc1 (stereo not given),–,> 100 µM
O=C(O)c1ccc(S(=O)(=O)Nc2ccc3oc4c(c3c2)C(=O)CCC4)cc1,> 100 µM,> 100 µM
CS(=O)(=O)c1c(N)c2nc(Cl)cn2c2nc3ccccc3nc12,–,> 100 µM
COc1ccc(C2Oc3cc(OC)c(O)c(C)c3[C@H]2C)cc1 (stereo not given in full),–,> 100 µM
O=C(CC1(O)C(=O)Nc2ccccc21)c1ccco1 (stereo not given),–,> 100 µM
COC(=O)CCC(=O)Nc1cc(Cl)ccc1Cl,–,> 100 µM
CCOP(=O)(C/C=C/Cn1nc(Br)c(=O)[nH]c1=O)OCC,–,> 100 µM
Cc1ccc2c(sc(-c3ccc4c(c3)sc(-c3ccc5c(c3)sc(-c3ccc(N(C)C)cc3)[n+]5C)[n+]4C)[n+]2C)c1S(=O)(=O)O (tested in a mixture with another compound),–,> 100 µM
Cn1c(-c2cccs2)cc(-c2cccs2)c1-c1ccco1,–,> 100 µM
CCOC(=O)C(C(=O)c1ccccc1C(=O)OC)=P(c1ccccc1)(c1ccccc1)c1ccccc1,–,> 10 µM
CCN(CC)CCCNc1ncc(C)c2[nH]c3ccncc3c12,–,27.3 µM
Cc1cc(O)c(C2=NN(c3ccc(S(N)(=O)=O)cc3)C(c3ccc(N(C)C)cc3)C2)c(C)c1Cl (stereo not given),18 µM,38.9 µM
C/C=C1/CN2CCC3(O)c4ccccc4N4C=C(C(=O)OC)C1CC2C43O (stereo not given),–,> 100 µM
O=C(O)CCC/C=C\C[C@H]1C=CC(=O)/C1=C/C[C@@H](O)CCc1cccc(C(F)(F)F)c1,5.71 µM,18.8 µM

SMILES,GI50,TGI
Cc1nccc2c3ccc(OCc4cn(-c5ccc(Cl)cc5)nn4)cc3n(CCCc3ccccc3)c12,19.1 µM,> 33.3 µM
Clc1ccc(C2=Nn3c(nnc3-c3cc(Cl)cc(Cl)c3Cl)SC2)cc1,82.8 µM,> 100 µM
O=C(Cc1nc2ccccc2s1)C(=O)Nc1cccc(Cl)c1,–,> 100 µM
COc1ccc(N/N=C(\CCN(C)C)c2ccccc2)cc1,–,34.9 µM
O=C(O)c1cc2ccccc2oc1=O,–,> 100 µM
N#CC(C#N)=C(N)/C(C#N)=C/c1ccc2ccccc2n1,–,> 100 µM
O=C(O)CNc1ccc(C(=O)O)cc1,–,> 100 µM
CCN1C[C@]2(C)CC[C@H](OC)C34C1C([C@H](OC(C)=O)[C@@H]32)[C@@]1(OC)C[C@H](OC)[C@H]2C[C@@H]4[C@@H]1[C@H]2O,–,> 100 µM
C[C@@H](CN1CC(=O)NC(=O)C1)N1CC(=O)NC(=O)C1,–,1490 µM
Cc1nc(CN2CCCCC2)c(O)c(=O)[nH]1,–,> 100 µM
CCN(CC)CCNC(=O)c1ccc(I)cc1,–,> 100 µM
C#CCN(N=O)C(=O)NC(CCCNC(=O)OCc1ccccc1)C(=O)OCc1ccccc1 (stereo not given),–,> 100 µM
CC(=O)C1C(=O)NC(=O)C1=O (stereo not given),–,> 100 µM
COC(=O)c1c(O)c([N+](=O)[O-])cc2c1c1c(n2Cc2ccccc2)C(=O)c2ccccc2C1=O,26.6 µM,> 100 µM
O=C(Cc1csc(-c2nc(CC(=O)NNc3ccccc3)cs2)n1)NNc1ccccc1,–,> 100 µM
C=C(C)C1CC/C(C)=C/CC[C@]2(C)O[C@H]2CC/C(COC(C)=O)=C\[C@@H]1O (stereo not given in full),–,> 50 µM
CC(=O)N1c2ccccc2NC2=C(C(=O)N(Cc3ccccc3)C2(C)C)C1c1ccco1 (stereo not given),1.11 µM,> 25 µM
CC(=O)c1ccc2c(ccc(=O)n2C)c1,–,> 100 µM
CN(C)c1ncc(-c2ccc(C(F)(F)F)cc2)c(NC2CCCCCC2)n1,32.8 µM,> 100 µM
O=C1CC(=O)NC(=NN2C(=O)/C(=C/c3ccccc3)N=C2c2ccccc2)N1,–,> 100 µM
COC1=CC(=O)C(OC)=C(OC)C1=O,20 µM,36.1 µM
O=C1O[C@H]2[C@H](O)[C@@H](OC(=O)c3cc(O)c(O)c4c3[C@@H]3C1=CC(=O)C(O)(O)C3(O)O4)[C@H](OC(=O)c1cc(O)c(O)c(O)c1)O[C@@H]2CO (stereo not given in full),–,> 100 µM
O=S(=O)(N/N=C/c1cccc(Cl)c1Cl)c1ccccc1,–,> 100 µM
S=P1(N2CCCCC2)Oc2ccc3ccccc3c2-c2c(ccc3ccccc23)O1,–,> 100 µM
